Data taken from the antibiotic and cytotoxicity screens of Wong et al. (2023).
Some of the results follow.

What was measured:
[1] = tested on: HSkMC (human skeletal muscle cells); assay: cytotoxicity call (relative viability < 0.9); details: 10 µM
[2] = tested on: HepG2; assay: cytotoxicity call (relative viability < 0.9); details: 10 µM
[3] = tested on: S. aureus RN4220; assay: growth inhibition call (relative growth <= 0.2); details: 50 µM

C[C@@H]1CN([C@@H](C)CO)C(=O)c2cc(-c3ccncc3)cnc2O[C@H]1CN(C)C(=O)Nc1ccc2c(c1)OCO2
inactive: cytotoxicity call [1] | cytotoxicity call [2] | growth inhibition call [3]

COCC#Cc1ccc2c(c1)O[C@@H](CN(C)C(=O)Nc1ccccc1F)[C@H](C)CN([C@H](C)CO)S2(=O)=O
inactive: cytotoxicity call [1] | cytotoxicity call [2] | growth inhibition call [3]

C[C@@H]1CN([C@H](C)CO)C(=O)CCCn2nncc2CO[C@@H]1CN(C)C(=O)c1cc(-c2ccccc2)on1
inactive: cytotoxicity call [1] | cytotoxicity call [2] | growth inhibition call [3]

COc1ccc(S(=O)(=O)Nc2ccc3c(c2)CC(=O)N([C@@H](C)CO)C[C@H](C)[C@@H](CN(C)S(=O)(=O)c2cn(C)cn2)O3)cc1
inactive: cytotoxicity call [1] | cytotoxicity call [2] | growth inhibition call [3]

C[C@@H]1CN([C@@H](C)CO)C(=O)c2cccc(NS(=O)(=O)c3ccc(Cl)cc3)c2O[C@@H]1CN(C)Cc1ccc(Cl)c(Cl)c1
inactive: cytotoxicity call [1] | cytotoxicity call [2] | growth inhibition call [3]

CC(C)CC#Cc1cnc2c(c1)C(=O)N([C@H](C)CO)C[C@@H](C)[C@@H](CN(C)S(=O)(=O)c1ccccc1)O2
inactive: cytotoxicity call [1] | cytotoxicity call [2] | growth inhibition call [3]

CC(C)(CO)[C@H](O)C(=O)NCCC(=O)NCCSSCCNC(=O)CCNC(=O)[C@H](O)C(C)(C)CO
inactive: cytotoxicity call [1] | cytotoxicity call [2] | growth inhibition call [3]

C[C@H](CO)N1C[C@H](C)[C@H](CN(C)S(C)(=O)=O)Oc2ccc(NS(=O)(=O)c3ccccc3)cc2CC1=O
inactive: cytotoxicity call [1] | cytotoxicity call [2] | growth inhibition call [3]

C[C@@H]1CCCCO[C@H](CN(C)C(=O)Nc2ccc(F)cc2)[C@H](C)CN([C@@H](C)CO)C(=O)c2cc(NS(=O)(=O)c3ccc(F)cc3)ccc2O1
inactive: cytotoxicity call [1] | cytotoxicity call [2] | growth inhibition call [3]

CCCNC(=O)N(C)C[C@H]1Oc2cc(-c3ccccc3F)ccc2S(=O)(=O)N([C@H](C)CO)C[C@H]1C
inactive: cytotoxicity call [1] | cytotoxicity call [2] | growth inhibition call [3]

Cc1noc(C)c1S(=O)(=O)Nc1ccc2c(c1)C(=O)N([C@@H](C)CO)C[C@H](C)[C@@H](CN(C)Cc1ccc(Oc3ccccc3)cc1)O2
inactive: cytotoxicity call [1] | cytotoxicity call [2] | growth inhibition call [3]

COc1ccc(CN(C)C[C@H]2OCCCC[C@@H](C)Oc3ccc(NS(=O)(=O)c4ccc(C)cc4)cc3C(=O)N([C@H](C)CO)C[C@H]2C)cc1
inactive: cytotoxicity call [1] | cytotoxicity call [2] | growth inhibition call [3]

C[C@@H]1CCCCO[C@@H](CN(C)C(=O)CCCN(C)C)[C@@H](C)CN([C@@H](C)CO)C(=O)c2cc(N(C)C)ccc2O1
inactive: cytotoxicity call [1] | cytotoxicity call [2] | growth inhibition call [3]

Cc1ccc(S(=O)(=O)N(C)C[C@@H]2Oc3c(NS(=O)(=O)c4cccs4)cccc3C(=O)N([C@@H](C)CO)C[C@@H]2C)cc1
inactive: cytotoxicity call [1] | cytotoxicity call [2] | growth inhibition call [3]

C[C@@H]1CCCCO[C@H](CN(C)C(=O)Nc2ccc(C(F)(F)F)cc2)[C@@H](C)CN([C@H](C)CO)C(=O)c2cc(NC(=O)Nc3ccc(C(F)(F)F)cc3)ccc2O1
inactive: cytotoxicity call [1] | cytotoxicity call [2] | growth inhibition call [3]

C[C@H](CO)N1C[C@H](C)[C@H](CN(C)C(=O)Nc2ccc(C(F)(F)F)cc2)Oc2c(NC(=O)Nc3ccc(F)cc3)cccc2C1=O
inactive: cytotoxicity call [1] | cytotoxicity call [2] | growth inhibition call [3]

O=C(C[C@@H]1C[C@@H]2c3cc(NS(=O)(=O)c4ccc(F)cc4)ccc3O[C@@H]2[C@@H](CO)O1)N1CCOCC1
inactive: cytotoxicity call [1] | cytotoxicity call [2] | growth inhibition call [3]

Cc1ccc(S(=O)(=O)N[C@@H]2CC[C@H](CC(=O)NCc3ccc(Cl)c(Cl)c3)O[C@@H]2CO)cc1
inactive: cytotoxicity call [1] | cytotoxicity call [2] | growth inhibition call [3]

COc1ccc(S(=O)(=O)N(C)C[C@@H]2OCCCC[C@H](C)Oc3ccc(NC(=O)C4CCCCC4)cc3C(=O)N([C@@H](C)CO)C[C@@H]2C)cc1
inactive: cytotoxicity call [1] | cytotoxicity call [2] | growth inhibition call [3]

C[C@@H]1CN([C@@H](C)CO)C(=O)c2cc(NS(=O)(=O)c3cccs3)ccc2O[C@@H]1CN(C)S(=O)(=O)c1ccc(F)cc1
inactive: cytotoxicity call [1] | cytotoxicity call [2] | growth inhibition call [3]

C[C@@H]1CCCCO[C@H](CN(C)S(=O)(=O)c2cccs2)[C@H](C)CN([C@@H](C)CO)C(=O)c2cc(NC(=O)Nc3ccccc3)ccc2O1
inactive: cytotoxicity call [1] | cytotoxicity call [2] | growth inhibition call [3]

CCC[C@@H](O)C#Cc1cnc2c(c1)C(=O)N([C@H](C)CO)C[C@H](C)[C@H](CN(C)S(=O)(=O)c1cn(C)cn1)O2
inactive: cytotoxicity call [1] | cytotoxicity call [2] | growth inhibition call [3]

C[C@@H]1CN([C@H](C)CO)C(=O)c2cccc(NS(=O)(=O)c3cccs3)c2O[C@@H]1CN(C)S(C)(=O)=O
inactive: cytotoxicity call [1] | cytotoxicity call [2] | growth inhibition call [3]

Cc1noc(C)c1NC(=O)N(C)C[C@H]1Oc2ccc(NS(=O)(=O)c3cn(C)cn3)cc2CC(=O)N([C@@H](C)CO)C[C@H]1C
inactive: cytotoxicity call [1] | cytotoxicity call [2] | growth inhibition call [3]

COc1ccc(C#Cc2cnc3c(c2)C(=O)N([C@H](C)CO)C[C@H](C)[C@@H](CN(C)CC2CCOCC2)O3)cc1
inactive: cytotoxicity call [1] | cytotoxicity call [2] | growth inhibition call [3]

Cc1ccc(S[C@]2(C(=O)NCc3ccccc3)CC(=O)N(Cc3cc(C(F)(F)F)cc(C(F)(F)F)c3)[C@@H]2c2ccc(CO)cc2I)cc1
inactive: cytotoxicity call [1] | cytotoxicity call [2] | growth inhibition call [3]
